B1: tRNA (parent)
chain: CUCUCGGUAGCCAAGUUGGUUUAAGGCGCAAGACUUUAAUUUAUCACUACGAAAUCUUGAGAUCGGGCGUUCGACUCGCCCCCGGGAGAUUUUUUCCUCGAGCAA

Variants at the floor of the assay are shown more often than the library holds them.

This data set covers variants of B1. Kind of data set: nonsense suppression (GFP-seq) (ratio to wild type); higher = more function; SUP4oc tRNA, yeast GFP reporter sort-seq. The procedure, abridged:
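Sorted GFP/RFP bins of yeast were each Illumina-sequenced with a phred ≥30 cutoff; the cells held a genome-integrated ochre-suppressor tRNA variant from a library with ~3% random mutations, a galactose-driven GFP ochre reporter, and RFP. Culture was in raffinose/galactose medium containing 80 mg/L adenine. Nonsense suppression, termed GFPSEQ, is the median GFP/RFP of the bins weighted by each variant's estimated cell share per bin, relative to the unmutated parent tRNA, for variants reaching ≥100 reads and ≥30 cells.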
For the variant A9C U21A A24G C77U, the nonsense suppression was no more than 0.026.
For the variant C34U A60C G66C, the nonsense suppression is no more than 0.026.
Next, U17A A24U: 0.2.
Consider A14U C56G, for which the nonsense suppression was no more than 0.026.
On to A9G U70A C81A, for which the nonsense suppression was no more than 0.026.
Turning to G7U A33C C75G, the nonsense suppression was no more than 0.026.
For U8G A24C G28C G32C, the nonsense suppression was no more than 0.026.
For A14U U57G U76A C83A, the nonsense suppression was no more than 0.026.
Take U4G A23C U35G G65C: the nonsense suppression was no more than 0.026.
Then A13C U20A C27A C29G, with no more than 0.026; and C29U U35C U58G C64U G66C, with no more than 0.026.
As for A33G C77A, the nonsense suppression is no more than 0.026.
Then G10C A13G U57A A74C, with no more than 0.026; and A13U A62C U71A C79A A87U, with no more than 0.026.

Source of the values: the RNAGym collection of RNA variant scans (doi:10.1101/gad.245936.114).
